Reference: paper PMC6919601, “Identification of Plasmodium dipeptidyl aminopeptidase allosteric inhibitors by high throughput screening” (PLoS ONE, 2019)
In all, about 110,000 compounds went through this assay and about 230 (0.21%) showed an effect of 50% or more. The list shows a part of the results.

Molecular target: DPAP1 (Plasmodium falciparum, UniProt Q8IIJ9)
Assay: primary screen, percent inhibition; read by cleavage of a fluorogenic dipeptide substrate; higher = more effect of the substance
Parameters: species or system P. falciparum D10 trophozoite lysates; single well
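Also: 30 min substrate incubation versus DMSO and 10 µM JCP410 controls.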

DPAP1, sequence (Q8IIJ9 whole entry, looked up): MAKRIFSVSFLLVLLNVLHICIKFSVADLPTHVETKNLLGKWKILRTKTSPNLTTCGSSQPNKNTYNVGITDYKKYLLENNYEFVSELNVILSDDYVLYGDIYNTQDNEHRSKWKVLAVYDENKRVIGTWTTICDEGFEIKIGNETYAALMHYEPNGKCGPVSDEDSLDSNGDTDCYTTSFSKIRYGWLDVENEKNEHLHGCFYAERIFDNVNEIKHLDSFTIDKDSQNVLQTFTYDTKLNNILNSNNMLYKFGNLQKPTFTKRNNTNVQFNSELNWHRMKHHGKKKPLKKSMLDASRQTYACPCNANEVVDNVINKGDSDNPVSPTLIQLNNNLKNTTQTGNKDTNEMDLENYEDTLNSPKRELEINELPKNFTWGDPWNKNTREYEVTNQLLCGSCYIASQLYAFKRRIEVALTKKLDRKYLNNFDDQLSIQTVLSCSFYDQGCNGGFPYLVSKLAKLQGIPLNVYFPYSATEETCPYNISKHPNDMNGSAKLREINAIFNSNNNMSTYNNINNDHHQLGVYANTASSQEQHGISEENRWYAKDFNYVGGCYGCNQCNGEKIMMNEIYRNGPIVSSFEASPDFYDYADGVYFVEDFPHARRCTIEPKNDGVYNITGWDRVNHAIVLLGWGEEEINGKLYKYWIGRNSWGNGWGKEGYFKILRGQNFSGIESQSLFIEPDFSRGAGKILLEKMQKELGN

SMILES	% Inhibition @ 10 uM [%]
CCOC(=O)N1CCC(NCc2cccnc2)CC1	1.88
CCOc1ccc2nc(N3CCC(C(=O)NCCCN4CCOCC4)CC3)sc2c1	-7.1
CCN(CC)S(=O)(=O)c1ccc(NC(=O)c2ccc(-c3ccccc3)cc2)cc1	-4.82
Cc1c(C(=O)NCCC(C)C)sc2nc3n(c(=O)c12)CCCCC3	1.51
CN1CCN(C(=O)CCCOc2ccc(Cl)cc2Cl)CC1	-3.56
Cn1nc(C(=O)NCCc2ccccc2)c2c1-c1ccccc1SC2	-0.495
Cc1ccc(C(=O)Nc2ccc(-c3nc4cc(Cl)ccc4o3)cc2)cc1[N+](=O)[O-]	-3.79
COCCNC(=O)C1CCCN(c2cnnc3c(Cl)cccc23)C1 (stereo not drawn)	1.08
Cc1cccc(OCCCCN2CCOCC2)c1	-0.546
CCOC(=O)c1cnc2ccc(OC)cc2c1NCCN1CCOCC1	-8.87
CC1CCN(C(=O)COc2ccc(S(=O)(=O)NC(C)(C)C)cc2)CC1	3.29
COc1cc(OC)c(OC)cc1CN1CCN(Cc2ccccc2C)CC1	0.661
O=C(c1ccc2c(Cl)c3c(nc2c1)CCC3)N1CCN(C2CCCCC2)CC1	-5.76
O=C(COc1ccccc1Cl)NC1CCCCCC1	2.33
CCCCSc1nnc(NC(=O)c2nc(SCC)ncc2Cl)s1	2.19
COc1ccc(C(=O)Nc2ccc(C)c(C)c2)cc1	-3.04
O=C(NCCN1CCN(C(=O)c2ccc(F)cc2)CC1)c1ccc(F)cc1	-4.02
FC(F)(F)c1nc(N2CCCCC2)nc2c1CCCCC2	-1.73
COc1cc(CN2CC(C)OC(C)C2)cc(OC)c1 (stereo not drawn)	-6.12
COc1ccc(CN2CCN(Cc3ccc(C)cc3)CC2)cc1OC	18.1
N#C/C(=C/C=C/c1ccccc1)c1nc(-c2ccc(Cl)c(Cl)c2)cs1	-2.6
COC(=O)N1CC(c2ccccc2)CC1=O (stereo not drawn)	-2.36
COc1ccc2oc(=O)c(-c3csnn3)cc2c1	10
CCCOc1ccc(S(=O)(=O)N2CCN(c3ccccc3F)CC2)cc1	-4.02
O=C(Nc1cccc(Cl)c1)c1cccc(Br)c1	1.38
O=C(Cc1ccccc1)Nc1nonc1-c1ccccc1	-1.07
Cc1cc(C)c2nc(NCc3ccc(F)cc3)sc2c1	2.31
CCOC(=O)/C(C#N)=C\c1c(C)cc(C)cc1C	2.62
OC1CC(c2ccccc2)NC2(CCCCC2)C1 (stereo not drawn)	3.79
CC(NC(=O)CNC(=S)N(Cc1ccccc1)Cc1cccnc1)c1ccccc1 (stereo not drawn)	1.27
